# The supplement of paper PMC11417369
# ± gives the standard deviation of the averaged measurements. This is one part of the list.
# Tested on: PfAP2-G AP2 domain (GST-tagged)
# Assay: gcPBM binding intensity (ln(normalized median fluorescence intensity)); higher = stronger DNA binding
# How it was run: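 The binding buffer was 1× PBS containing 1% milk, 0.2 mg/ml BSA, 0.5% salmon testes DNA and 0.03% Triton X-100. In it, GST-tagged P. falciparum DNA-binding domains expressed in E. coli were applied for 1 h to an Agilent 4 × 180k array of primer-extended double-stranded 36-bp intergenic genomic probes plus negative controls. Binding intensity, read with Alexa488 anti-GST antibody and a 488 nm scan, is the highest Masliner-normalised natural-log median intensity across replicate spots of either probe orientation.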
row,Sequence,gcPBM binding intensity (ln)
1,TGGTGTTTTTTTTAATGTACTTATAAAATAATACAT [XGTACX_site6574],11.4 ± 0.83
2,AATTCCTTATACAATTGTACATAAAAAGAATAAAAA [XGTACX_site1343],11 ± 0.66
3,TTAAAAAAGAATTGTGCACACACAAAAAATGTTCAT [CACACA_site1102],10.4 ± 0.24
4,AATATATATTCATGTGTACACACAAAAAAAAATAAA [CACACA_site8690],11.6 ± 0.84
5,AAAAAAAAAAAAATTACACACATACAGATAATAATA [CACACA_site5244],9.845 ± 0.064
6,CTATTATAAAAATGATGTACACTTATATATACATAT [XGTACX_site6087],11.4 ± 0.64
7,TTTTTTTTTTGAATATGTACTTAAAAAAATTTTTTT [XGTACX_site3851],11.3 ± 0.86
8,TTTTCATTCCACAACGCACACCCATTTAAAAAAAAA [CACACA_site1377],10.5 ± 0.45
9,TAATTTTTTTTTTTTTTTTTTTTTTTTTTTTTTTTA [CACACA_negctrl_site1218],9.59 ± 0.014
10,AAAAAGAAGATGCAAACATGCACACAGAAAAAAAAA [TGCATGCA_site375],10.1 ± 0.13
11,AAAAATATAATATAATGTACACAAAAAAAAAAAATC [XGTACX_site1427],11.4 ± 0.71
12,TATGAAGACACAAATACACACACTCAAAAAAAAAAA [CACACA_site2660],10.1 ± 0.38
13,GAAAAAAAAAAAAAAAAACACACGGTACATTCAAAG [CACACA_site303],10.4 ± 0.16
14,AAAAAATATTTTAGTGGTACATTTGTAGCTCTCAAA [XGTACX_site4859],11.2 ± 0.7
15,AATCAAATATTTAAATGTACTCAAGAAGGCTTAATC [XGTACX_site6907],11.4 ± 1
16,ATAACATGAACATATGTTACACAAACATACATACAT [XGTACX_negctrl_site365],10.3 ± 0.21
17,AAATTATAATTAGGAACACACATATATATATATATA [CACACA_site3098],10.3 ± 0.46
18,TACATACATACATACATACACACATATATATATATA [CACACA_site1996],10.6 ± 0.37
19,TACATGTATAATATAATACACACTATATAATATACA [CACACA_site2239],9.98 ± 0.18

row,Sequence,gcPBM binding intensity (ln)
1,TTATTGTTTATTAAATGTACAGATTCGTTAAAATTA [XGTACX_site3041],11 ± 0.54
2,TAAATAAATACATACACACACATACATATATATATA [CACACA_site3129],10.2 ± 0.4
3,TACACAAAACATAAAAGTACATAATAATAAAGTTAA [XGTACX_site8872],11.3 ± 0.6
4,GAACAAATAAAAAGGAGTACAATCAAATCTACGTAT [XGTACX_site343],11.6 ± 0.89
5,ACAACAATATGGAATTGTACATATATATATAAATAT [XGTACX_site3139],10.8 ± 0.53
6,TATTTTTTTGTGTTTGGTACACACGTTATAAAAAAT [XGTACX_site2655],11.2 ± 0.8
7,CTAGCAAATACATACACACACACACCCATACATATA [CACACA_site3496],10.2 ± 0.25
8,CACTAAAATGGACACACACACACACCGATATATATA [CACACA_site6139],11 ± 0.69
9,ATCGCATAAAGACAAGAACACACATATATATTGTAG [CACACA_site9229],9.995 ± 0.007
10,AATAAATATAGGAATACACACAATATAAATGTATTG [CACACA_site3366],10.02 ± 0.071
11,TTATAATAAATATGAAGTACTATAAATATGGTATAT [XGTACX_site5448],11.2 ± 0.63
12,ATTTGGCATAAACACACACACACACCCACCCACATA [CACACA_site8096],10.6 ± 0.38
13,TTTTTATTGAGAACAGTGCAAATAACAAAAAAAAAA,10.3 ± 0.2
14,TGGAAAATTATAAGGTGTACATATAAGCTATTATAT [XGTACX_site118],11.5 ± 0.79
15,TTTTTTTTTTTAAGGTGTACAATAAAAATTTATGCA [XGTACX_site8860],11.6 ± 0.93
16,CATTTTTTAAGCATCACACACGAAAGAACAAAGTGG [CACACA_site4755],10.6 ± 0.38
17,CATATATAAAATATATGTACTTATAGAACATAATTT [XGTACX_site1936],11.3 ± 0.45
18,ACTTTTTCACATAAAAATGATCCGATTAGTAATAAT [XGTACX_negctrl_site248],9.97 ± 0.11
19,AAATAAAAAAACTATTGTACTGAATACAAATTAAAT [XGTACX_site3793],10.8 ± 0.47

row,Sequence,gcPBM binding intensity (ln)
1,ATAATATTAGTAAACACACTCAAATTATATATGATA [CACACA_site5721],9.92 ± 0.099
2,AGGAATAAATAATTAACACACACAATCTTTTTTTTT [CACACA_site9027],9.74 ± 0.13
3,TAATAAGTATAAAATAGTACATATAAATATATCAAA [XGTACX_site8834],11 ± 0.73
4,ATAATTATATTCCATACACACATATATTTAAAGGTT [CACACA_site2957],10.1 ± 0.11
5,AGTATACATTCATTTTGTACTCAATGATTTGATAAC [XGTACX_site6787],11.1 ± 0.67
6,TATTTATTTATATTTACACACATTCATATAAATTCA [CACACA_site7628],9.915 ± 0.078
7,TTTTTTTTTTTATCTGCACACCCTTTTGTGAATATT [CACACA_site789],10.2 ± 0.33
8,TCTGAGAATGATAAAAAAAAAAAAAATGAAAAATTA [CACACA_negctrl_site1478],9.52 ± 0.028
9,ACGATATTTTTGGTGACACACATATATATATATATA [CACACA_site126],10.4 ± 0.32
10,CATTATGTTGTAAATACACACATACCTATACATACA [CACACA_site6485],10.2 ± 0.15
11,AACAATCAAATAGACACACACACACCCAAACATAAA [CACACA_site2757],10.2 ± 0.4
12,CTCCTACAAATATGTAGTACATTCAAAATAAATACC [XGTACX_site8207],11.6 ± 0.91
13,AATGAGCGTTAAAAATGTACAGAAAATTGGAATTAT [XGTACX_site5743],10.8 ± 0.54
14,AAAACTTTTAGTTATACACACAACATAGAAAATATT [CACACA_site6287],10.2 ± 0.12
15,AATTATTATATATATATATATATATATTTATATATT [GTGCAC_negctrl_site387],9.53 ± 0.14
16,AGTTCAAGGATTAAGACACACATATAAATAAATAAA [CACACA_site3662],10.1 ± 0.33
17,AAATAAAATAATTATAATACTAAAAATAATACATAA [GTGCAC_negctrl_site106],10.03 ± 0.099
18,TTTTTTTTGTAGAATTGTACTTATAAAATATATATA [XGTACX_site2116],11.1 ± 0.75
19,AAAAAATGGATGATCACACACTTCATAAAAGTTGCA [CACACA_site7109],9.87 ± 0.11
